Experimental data: patent publication US20230277682A1 (priority 2022, published 2023)

System: VSVAG expressing the spike protein of SARS-CoV-2
Assay type: cell-based

B1: 10987-12b (conjugate)
heavy: QVQLVESGGGVVQPGRSLRLSCAASGFTFSNYAMYWVRQAPGKGLEWVAVISYDGSNKYYADSVKGRFTISRDNSKNTLYLQMNSLRTEDTAVYYCASGSDYGDYLLVYWGQGTLVTVSS[human IgG1 constant region omitted here]
light: QSALTQPASVSGSPGQSITISCTGTSSDVGGYNYVSWYQQHPGKAPKLMIYDVSKRPSGVSNRFSGSKSGNTASLTISGLQSEDEADYYCNSLTSISTWVFGGGTKLTVLGQPKAAPSVTLFPPSSEELQANKATLVCLISDFYPGAVTVAWKADSSPVKAGVETTTPSKQSNNKYAASSYLSLTPEQWKSHRSYSCQVTHEGSTVEKTVAPTECS
For B1, the “Fold Increase over Parental Antibody” value was 3.5 fold.

B2: 10987-HC-Cterm-LLQGA-10b (conjugate)
heavy: QVQLVESGGGVVQPGRSLRLSCAASGFTFSNYAMYWVRQAPGKGLEWVAVISYDGSNKYYADSVKGRFTISRDNSKNTLYLQMNSLRTEDTAVYYCASGSDYGDYLLVYWGQGTLVTVSS[human IgG1 constant region and a few adjoining residues omitted here]
light: QSALTQPASVSGSPGQSITISCTGTSSDVGGYNYVSWYQQHPGKAPKLMIYDVSKRPSGVSNRFSGSKSGNTASLTISGLQSEDEADYYCNSLTSISTWVFGGGTKLTVLGQPKAAPSVTLFPPSSEELQANKATLVCLISDFYPGAVTVAWKADSSPVKAGVETTTPSKQSNNKYAASSYLSLTPEQWKSHRSYSCQVTHEGSTVEKTVAPTECS
B2 was tested, and the “Fold Increase over Parental Antibody” value was 2.5 fold.
